Results taken from ChEMBL document CHEMBL4888484, “Replenishing the malaria drug discovery pipeline: Screening and hit evaluation of the MMV Hit Generation Library 1 (HGL1) against asexual blood stage Plasmodium falciparum ,using a nano luciferase reporter read-out” (2022).
The campaign covered roughly 150,000 compounds. About 540 (0.36%) showed an effect of 50% or more. This is one part of the list.

tested on: Plasmodium falciparum; experiment: Primary screen in NF54 nanoGlo assay, in single point, at 2uM, 72h; a lower Z score goes with more inhibition; type: functional, Erythrocyte; conditions: timepoint 72 hour

SMILES | % Inhibition | Z score
O=C(O)c1ccnc(Oc2ccc(Cl)cc2C2CCCCC2)c1 | 5% | -0.61
c1ccc(CNc2ncc(CN3CC(c4cccnc4)C3)cn2)cc1 | -4% | 0.73
Cc1cc(C)c(CNC(=O)COCC(F)(F)C(F)F)cn1 | -11% | 1.39
CCOCCCN(CCC(=O)N[C@@H](C)CC)C(=O)c1cnccn1 | -14% | 1.99
Cc1cc(C(=O)N2CCN[C@H](c3cccc(Cl)c3)C2)[nH]n1 | -3% | 0.44
Cc1cccc(OCC(=O)N2C3CCC2Cn2c(nn(CC(C)C)c2=O)C3)c1 (stereo unspecified) | -8% | 0.96
CC[C@@]1(C)CC(=O)c2cc(NC(=O)N3CCc4n[nH]cc4C3)ccc2O1 | -1% | 0.14
C[C@]1(O)CCN(C(=O)c2cnc(N)nc2C(F)(F)F)C[C@@H]1O | -3% | 0.36
CN(Cc1cnc(NC[C@H]2CCCO2)nc1)Cc1ccsc1 | 0% | 0.07
CCc1cc([C@H](C)n2ccnc2-c2ccc(NC(C)=O)cc2)on1 | -7% | 1.01
CCC1CCN(C(=O)C[C@@H]2NC(=O)N(c3ccc(F)cc3)C2=O)CC1 | -10% | 1.5
C[C@H]1CN(C(=O)c2cc(-c3ccccc3)on2)c2ccccc2O1 | -2% | 0.24
COc1cccc(C2(CC(=O)N3CC4CCC3C4)CC(=O)N(CCN(C)C)C2=O)c1 (stereo unspecified) | 1% | -0.28
Cc1nn(C)c(C)c1NC(=O)NCc1csc2c1CCCC2 | -14% | 2.25
CCC(=O)N1CCN(C(=O)c2cccc(C)n2)C1 | 11% | -1.34
Cc1ccc(C(=O)N2CC(N3C(=O)CCC3=O)C2)cc1F | -10% | 1.82
Cc1ccccc1C1c2[nH]c3ccccc3c2C[C@H]2C(=O)N(C3CCCC3)CC(=O)N12 (stereo partly specified) | 1% | -0.07
F[C@@H]1CCN(Cc2noc3c2COCC3)C1 | -20% | 2.01
CCOc1cc(N2CCN(C)CC2)ccc1NC(=O)c1cscn1 | -30% | 6
CCCCn1nc(NC(=O)c2cc(C3CC3)[nH]n2)cc1C | 30% | -0.58
O=C(Nc1cccc(Cl)c1)N1CC(Cc2nc(-c3cccnc3)no2)C1 | -8% | 1.13

SMILES | % Inhibition | Z score
Cc1cnc(CCNC(=O)[C@H]2CCc3nc(C)nn3C2)c(C)c1 | 9% | -1.65
CCCc1cnc(C)nc1N1CCC[C@H](c2nccn2CC2CC2)C1 | -20% | 2.61
Cc1ccc2cc(CN(Cc3noc(C)n3)C(C)C)c(=O)[nH]c2c1 | -7% | 1.05
NC(=O)Cn1cnc(-c2noc(C(F)=CC3CCCCC3)n2)n1 | -6% | 0.78
CCn1c(=O)c2sccc2n(CC(=O)NCc2ccc(F)cc2)c1=O | 5% | -0.76
COc1cccc(CC(=O)N2C[C@@H](Oc3ccccc3)C[C@H]2C(=O)NC2CC2)c1 | -7% | 0.88
CCC(C)N(C)CCNC1C2CCOC2C12CCCC2 (stereo unspecified) | -7% | 1.18
Cc1cccc2c1nc1n2[C@@H](CNS(=O)(=O)c2ccccc2)COC1 | -9% | 1.15
c1cc(CN[C@H]2COC[C@H]2n2ccnn2)c2cc[nH]c2c1 | -17% | 2.04
Nc1nnc(CCn2cnc(-c3ccccc3)c2[C@H]2CCOC2)s1 | -2% | 0.28
COCCNC(=O)C[C@H](CCc1ccccc1)c1c[nH]c2ccccc12 | 1% | -0.09
O=C(c1cnc(CN2CCCC2)s1)N1CCC(c2cc(O)ncn2)CC1 | -13% | 2.36
Cc1ccc(S(=O)(=O)NC[C@H](O)c2ccc(-c3ccsc3)cc2)s1 | 14% | -1.92
CCn1ccc(C(=O)N(C)[C@@H](C)c2ccco2)cc1=O | -8% | 0.78
CCN(C)C[C@H](C)c1nc(-c2c[nH]c3ccccc23)n[nH]1 | -8% | 0.98
O=C(C1CCCN(c2nccs2)C1)N1CCCC(n2cccn2)C1 (stereo unspecified) | -15% | 1.53
CC(NC(C)c1nc2ccccc2n1C(C)C)C(=O)Nc1ccc(F)c(F)c1 (stereo unspecified) | -9% | 0.83
Clc1ccc(NCc2cnc3ncccn23)nc1 | -11% | 2.2
CC1CCCCC12NCCN=C2NC1CCCCCC1 (stereo unspecified) | 13% | -1.69
O=C(O)[C@@H]1CN(S(=O)(=O)c2cc3ccccc3o2)c2ccccc21 | 35% | -5.1
CCCn1ncc(NC(=O)Cn2cc(C)c(-c3ccccc3F)n2)n1 | 4% | -0.58

SMILES | % Inhibition | Z score
C=CCc1cc(CN(C)CC2(C)COC2)ccc1OC(C)C | -3% | 0.58
CC(=O)N1CCC(C(=O)Nc2ccsc2-c2nc(-c3cccc(C)c3)no2)CC1 | -16% | 1.57
CN1CCC(Nc2ncnc3sccc23)CC1 | 2% | -0.35
CC1(C)CN(C(=O)C2COc3ccccc32)CC[S+]1[O-] (stereo unspecified) | -10% | 1.37
CCc1ccc(COc2cc(-n3c(=O)cc(C(F)(F)F)n(C)c3=O)ccc2OC)c(O[C@@H](C)C(=O)OC)c1 | -50% | 5.85
COc1ccc(OC)c(CNC(=O)c2nc(Cn3nc(-c4ccc(C)cc4)ccc3=O)no2)c1 | -7% | 0.89
CN(C)S(=O)(=O)N1CCN(c2cccc(OCc3ccccc3Cl)c2)CC1 | 0% | 0
Cc1cccc(NC(=O)N2CCN(CCn3cnc4cccnc43)CC2)c1C | -12% | 1.59
CC#CCN1C(=O)N[C@@](CCc2ccccc2)(C2CCN(C(=O)c3n[nH]c4c3CCC4)CC2)C1=O | -5% | 0.96
CO[C@H]1CN(c2cccc(F)c2)C12CCN(C(=O)c1ccc(C)s1)CC2 | -13% | 1.67
Cc1cc(F)ccc1-n1ccc(C(=O)N2CCCNC(=O)[C@@H]2C)n1 | -12% | 1.36
O=C1CO[C@H]2CN(Cc3ccccc3)C[C@H]2N1Cc1cccc(C(F)(F)F)c1 | -4% | 0.59
O=C(NCCc1c[nH]c2cc(F)c(Cl)cc12)[C@H]1CCCC(F)(F)C1 | 1% | -0.2
CC1(C)CN(C(=O)Cn2cc(NC(=O)c3occ4c3CCOC4)cn2)CCO1 | 5% | -0.82
Cn1c(CN2CCCCC2)nnc1C1CCN(c2ncc(F)cn2)CC1 | 2% | -0.28
CCOC(=O)[C@H](C)n1cnc2c1c(=O)n(CC1CC1)c(=O)n2-c1cccc(OC)c1 | -9% | 1.34
Cc1ccc2oc(CN(C(=O)c3ccc(Cl)c(Cl)c3)C3CCCCC3)nc2c1 | -5% | 0.89
Cc1cc(C#N)nc(N[C@@H](C)c2nc[nH]n2)n1 | -3% | 0.52
Cc1ccccc1C(C)NCCCOC1CCOC1 (stereo unspecified) | -22% | 2.18
CCOC(=O)Nc1ccc(NCc2cnc(C)s2)cc1C#N | 2% | -0.33
Cc1ccccc1C(=O)N1CCc2nc(N3CCOCC3)nc(N3CCN(C)CC3)c2C1 | -3% | 0.46

SMILES | % Inhibition | Z score
Cn1ccnc1[C@@H]1CCCN1S(=O)(=O)c1c2c(nn1C)CCCC2 | 36% | -1.42
CC[C@H]1CCCCN1Cc1ccc(CNC(=O)c2c(C)oc3ncn(CC(C)C)c(=O)c23)o1 | -4% | 0.71
Cn1c(=O)c2c(ncn2CC(=O)N2CCCn3nc(-c4cccc(F)c4)cc3C2)n(C)c1=O | -14% | 1.22
CCc1nc(-c2csc(S(=O)(=O)N3CCC[C@H](C(=O)Nc4ccc(C)cc4Cl)C3)c2)no1 | -1% | 0.1
Cc1ccc(CN2CC[C@H](CNC(=O)c3cc(N)ccn3)C2)cc1C | 1% | -0.15
CO[C@@H](CNC(=O)N1CCc2c(F)cc(F)cc21)c1ccccc1 | -1% | 0.08
CCCn1c(C)cnc1C1CN(S(=O)(=O)c2cc(Cl)ccc2Cl)C1 | 30% | -4.02
N[C@@H](CC(=O)O)c1ccc(C(F)(F)F)cc1 | 0% | -0.07
Cc1ccnc2nc(C(=O)N(CCc3cccc(F)c3)C3CC3)nn12 | -5% | 0.53
COc1ccccc1CCn1c(C)cc(=O)c(C(=O)N2CCN(c3cccc(Cl)c3)CC2)c1C | -8% | 1.11
C=CCCC(=O)N1CCCCC1C1CCCN(C(=O)C(F)(F)F)C1 (stereo unspecified) | 0% | 0.01
CCc1onc(C)c1NC(=O)N(C)C1CCC1 | -17% | 2.53
N#CC1COCCN1C(=O)C1CC2CCC1O2 (stereo unspecified) | -4% | 0.62
CN1CCN(C[C@@H]2CN(C(=O)c3cc4c(s3)CCCC4)C[C@@H]2CO)CC1 | -14% | 1.48
O=C(N[C@@H]1C[C@H]1c1cccc(Cl)c1)c1cc[nH]n1 | -11% | 1.76
Fc1c(F)c(F)c2c(c(-c3ccccc3)nn2-c2ccccc2)c1F | -10% | 1.85
COc1ccc(CNC(=O)c2ccc3[nH]c4c(c3c2)CN(C(C)=O)CC4)c(OC)c1 | 17% | -2.56
CC[C@H]1c2cccn2CCN1C(=O)c1conc1C(F)(F)F | 0% | -0.04
CC[C@@H](C#N)Oc1cc(CN)ccc1OC | -6% | 0.97
CCN1C(=O)[C@@H]2CC3(CCN(Cc4ccc(F)cc4F)CC3)CN2C1=O | 2% | -0.25
